# Experimental data published in PubChem BioAssay AID2546 (National Center for Advancing Translational Sciences (NCATS), 2010).
# Screen size: about 310,000 compounds; about 11,000 (3.5%) were called active. Inconclusive results, whose numbers are uncertain, are shown with a selection of clear calls. The call rests on the fitted dose curve; in most records, active means well fitted inhibition curve with a large enough effect; inconclusive means small, poorly fitted or top-dose-only effect, or effect the other way; inactive means flat fitted curve, though single readings scatter. Potencies of inconclusive entries are left out as doubtful fits.
# Test: VP16 counterscreen qHTS for inhibitors of ROR gamma transcriptional activity;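 further: Gal4-VP16 expression switched on by copper sulfate through the metallothionein promoter; nearly all actives have a fitted effect of over 50% in size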
# Conditions: Drosophila S2 Gal4-VP16 UAS-luciferase, luminescence, 20 h; activity, negative = inhibition: at 53.6 µM (top of the series)
# On the % scale 0 is the no-effect control and ±100 the full control effect; potency means the concentration at half of the fitted maximal effect; tags describe the fitted curve by direction and shape.
SMILES,Potency,"activity, negative = inhibition"
N#Cc1nc(-c2ccccc2)oc1NCCCn1ccnc1,inactive,–
COc1ccc(NC(=O)Nc2cccc([N+](=O)[O-])c2)cc1Cl,"inconclusive [inhibitor, single point]",–
Cc1ccc(/C=N/n2c(-c3ccco3)n[nH]c2=S)s1,"inconclusive [inhibitor, single point]",–
COc1cc(-c2nc3ccc4ccccc4c3c3c2CCC3)cc(OC)c1O,"inconclusive [inhibitor, single point]",–
N#Cc1ccc2c(c1)C[C@]1(CCCCN3C(=O)c4ccccc4C3=O)Oc3c(c(=O)oc4ccc(F)cc34)C2O1,–,inactive: 3.6% [at 10 µM]
O=C(Nc1nnc(C2CC2)o1)c1ccc(S(=O)(=O)N2CCCCC2)cc1,active: 0.562 µM,–
Clc1ccc(Cn2ncc3c(NCc4cccnc4)ncnc32)cc1,"inconclusive [inhibitor, single point]",–
CC(C)COc1ccc(-c2nn(-c3ccccc3)cc2C(=O)Nc2nccs2)cc1,active: 4.47 µM,–
Cc1ccc(S(=O)(=O)C2C(=O)N(C)C3(C)CC2c2ccccc2O3)cc1C (stereo not drawn),"inconclusive [inhibitor, full curve]",–
Cc1cc(C)nc(/N=C(\N)Nc2ccc(C(C)C)cc2)n1,"inconclusive [inhibitor, single point]",–
CC(=O)c1ccccc1NC(=O)CCNC(=O)c1ccco1,inactive,–
CCOC(=O)c1c(NC(=O)CSc2nnc(N)s2)sc(C)c1-c1ccc(C)cc1,"inconclusive [inhibitor, single point]",–
O=C(Cc1cccs1)N1CCN(c2cccc(Cl)c2)CC1,inactive,–
CN1CCc2c(sc(NC(=O)c3ccc(S(=O)(=O)N4CCc5ccccc54)cc3)c2C(N)=O)C1,"inconclusive [inhibitor, single point]",–
COc1cc(/C=N/Nc2ccccn2)cc(OC)c1O,"inconclusive [inhibitor, single point]",–
CC(=O)c1cccc(Nc2cc(C)nc3ccc(C)cc23)c1,"inconclusive [inhibitor, single point]",–
COCCn1c(C)cc(C(=O)COc2nc3ccccc3nc2C)c1C,"inconclusive [inhibitor, single point]",–
COc1ccc(-c2nc3ccccc3n2OCC(=O)O)cc1,active: 12.6 µM,–
COc1cc(/C=N\NC(=O)CC(=O)NCCc2ccccc2)ccc1O,inactive,–
CCCCc1ccc(NC(=S)NCCCN2CCOCC2)cc1,"inconclusive [inhibitor, single point]",–
N#Cc1cc(N)ccc1Sc1ccc(Cl)cc1,inactive,–
CCCOc1ccc(CNC(=O)Cc2cccs2)cc1,"inconclusive [activator, full curve, poor fit]",–
COc1cc(C(=O)NC(=S)Nc2ccc3c(c2)OCO3)cc(OC)c1OC,"inconclusive [inhibitor, single point]",–
O=C(/C=C/c1ccc([N+](=O)[O-])cc1)Nc1ncc([N+](=O)[O-])s1,active: 7.08 µM,–
COc1ccc(-c2nnc(NC(=O)c3ccc([N+](=O)[O-])o3)o2)c(OC)c1,active: 6.31 µM,–

SMILES,Potency,"activity, negative = inhibition"
CC(=O)c1ccc(Nc2ccc([N+](=O)[O-])c3nonc23)cc1,"inconclusive [inhibitor, single point]",–
COC(=O)c1ccccc1-c1ccc(/C=N/Nc2nc(N3CCCC3)nc(N3CCCC3)n2)o1,"inconclusive [inhibitor, single point]",–
Nn1c(Cc2cccc3ccccc23)nnc1SCc1c(F)cccc1Cl,inactive,–
COc1ccc2[nH]cc(CCNc3ncnc4ccc(-c5cccc(C#N)c5)cc34)c2c1,"inconclusive [inhibitor, single point]",–
CCCN1CCc2c(sc(NC(=O)c3ccc(S(=O)(=O)N(C)c4ccccc4)cc3)c2C(=O)NC)C1,"inconclusive [inhibitor, single point]",–
COc1ccc(N2CCN(C(=O)CCc3ccc(S(=O)(=O)NC(C)(C)C)cc3)CC2)cc1,"inconclusive [inhibitor, single point]",–
S=C(Nc1ccc(Cl)cc1)NC1CC2CCC(C1)N2Cc1ccccc1 (stereo not drawn),"inconclusive [inhibitor, single point]",–
O=S1(=O)C=C(Oc2ccc3ccccc3c2)c2ccccc21,"inconclusive [inhibitor, single point]",–
Cc1ccc(C(=O)c2no[n+]([O-])c2C(=O)c2ccc(C)cc2)cc1,"inconclusive [inhibitor, single point]",–
Oc1ccc(Br)cc1CNc1cccc2cccnc12,inactive,–
CC1CCC/C(=N/NC(=O)c2ccccc2-n2cccc2)C1 (stereo not drawn),inactive,–
COc1cc(C(=O)O/N=C(\N)Cc2ccc([N+](=O)[O-])cc2)cc(OC)c1OC,"inconclusive [inhibitor, partial curve]",–
COc1ccc(CSc2nc(O)cc(=O)n2CC(C)C)cc1F,inactive,–
Cc1nc2ccc(Br)cn2c1C(=O)N/N=C\c1ccc(C(C)C)cc1,active: 5.01 µM,–
Cc1csc(NC(=S)Nc2cccc(Cl)c2)n1,active: 1 µM,–
Cc1ccc(NC2=C/C(=N/S(=O)(=O)c3cccs3)c3ccccc3C2=O)cc1,active: 6.31 µM,–
CCOC(=O)CSCC(=O)N1N=C(c2cccs2)CC1c1ccc(F)cc1 (stereo not drawn),inactive,–
Clc1ccc(CSc2snnc2-c2ccccc2)cc1,"inconclusive [activator, single point]",–
C/C(=N/NC(=O)c1cccs1)c1ccc(N2CCOCC2)cc1,"inconclusive [activator, single point]",–
CC(C)(C)C(=O)/C(=C/c1ccncc1)n1cncn1,active: 2.82 µM,–
Cc1cc(N2CCN(S(=O)(=O)c3ccc(Cl)cc3)CC2)c2ccccc2n1,"inconclusive [inhibitor, single point]",–
Cc1cc(C(=O)NNC(=S)NC2CCCCC2)cs1,"inconclusive [inhibitor, single point]",–
Cc1ccnc(SC2CC(=O)N(c3ccc(Cl)cc3)C2=O)n1 (stereo not drawn),"inconclusive [inhibitor, single point]",–
CCOC(=O)c1c(NC(=S)Nc2cccc(C)c2)sc2c1CC(C)(C)SC2,active: 2 µM,–
COc1ccc(CN(C(=O)c2cc3ccccc3oc2=O)C2CCS(=O)(=O)C2)cc1OC (stereo not drawn),inactive,–

SMILES,Potency,"activity, negative = inhibition"
Cc1cccc(NC(=S)N2CCN(Cc3ccccc3)CC2)c1C,"inconclusive [inhibitor, single point]",–
Cc1ccc(NC(=O)c2cccs2)cc1,"inconclusive [inhibitor, single point]",–
Clc1ccc([C@H](Cn2ccnc2)OCc2c(Cl)cccc2Cl)c(Cl)c1,"inconclusive [inhibitor, single point]",–
Cc1nn(Cc2ccccc2)c(C)c1NC(=O)c1noc2c1CCc1ccccc1-2,"inconclusive [inhibitor, partial curve]",–
CCCCc1ccc(NC(=S)Nc2cccnc2)cc1,active: 12.6 µM,–
Cc1cc(C)c(C(=O)NC2CCCc3c2cnn3-c2ccc(C)c(C)c2)c(=O)[nH]1 (stereo not drawn),inactive,–
CCn1c2ccccc2c2cc(NC(=O)COC(=O)c3cc(OC)c(OC)cc3OC)ccc21,inactive,–
COc1ccccc1/C=C1\C(=O)Nc2ccccc21,"inconclusive [inhibitor, single point]",–
Cc1nn(C)c(C)c1CCC(=O)N1CCCC(C(=O)c2cccc(OC(C)C)c2)C1 (stereo not drawn),"inconclusive [inhibitor, single point]",–
O=C(c1ccccc1)N1CCN(C2CCCCC2)CC1,inactive,–
COCCN(Cc1ccccc1)C(=O)c1cc(-c2ccc(OC)c(OC)c2)nc2ccccc12,"inconclusive [inhibitor, single point]",–
CSc1ccc(/C=N/NC(=O)c2ccccc2Cl)cc1,"inconclusive [activator, single point]",–
COc1ccc(-c2c(O)c(C#N)c(-c3ccccc3)n(-c3ccc(OC)cc3)c2=O)cc1,"inconclusive [activator, single point]",–
COc1ccccc1-c1cnnc(N/N=C/c2ccc(-c3cccc(Br)c3)o2)n1,active: 2 µM,–
O=C(N/N=C/c1ccc(-n2ccnc2)cc1)c1cccs1,"inconclusive [activator, partial curve]",–
Cc1cc(Cl)ccc1OCC(=O)OCC(=O)Nc1ccc(F)c([N+](=O)[O-])c1,inactive,–
O=C(NCc1cccnc1)NC1(C(F)(F)F)Oc2ccccc2O1,"inconclusive [inhibitor, single point]",–
Cc1ccc(C23CC4CC(CC(C(=O)NN)(C4)C2)C3)cc1,"inconclusive [inhibitor, single point]",–
CCOC(=O)c1ccc(NC(=O)c2nc[nH]c2C(=O)NCC(=O)OC(C)(C)C)cc1,active: 15.8 µM,–
CCOC(=O)C1CCN(C(=S)Nc2ccc(Cl)cc2C)CC1,"inconclusive [inhibitor, single point]",–
CCOc1ccccc1C1CC(=O)Nc2cc(OC)c(OC)cc21 (stereo not drawn),inactive,–
Cc1ccc2nc(/C(C#N)=C\c3cc(C)n(-c4cccc([N+](=O)[O-])c4)c3C)[nH]c2c1,inactive,–
Cc1cc(C(=O)N/N=C2\CC(=O)CC(C)(C)C2)c(C)n1-c1ccccc1,"inconclusive [inhibitor, partial curve, poor fit]",–
